Data reported in the RNAGym collection of RNA variant scans (doi:10.1093/nar/gkz1192).
Read counts are not given, so values of variants with three or more changes are uncertain.

B1: CPEB3 Ribozyme (parent)
chain: UAACAGGGGGCCACAGCAGAAGCGUUCACGUCGCAGCCCCUGUCAGAUUCUGGUGAAUCUGCGAAUUCUGCUGUAUAUCUC

Variants of: B1
Test: self-cleavage, relative activity (ratio to wild type); higher = more cleavage; in vitro, sequencing
In short: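 Relative activity compares each variant's cleaved/total read fraction with that of the unmutated ribozyme. To get these fractions, barcoded CPEB3 ribozyme libraries from rounds of error-prone PCR were transcribed with T7 RNA polymerase for 5 hours at 37°C and then given 15 min of DNase I treatment before EDTA was added. The RNAs were reverse transcribed with template switching and sequenced on Illumina, and DNA sequencing linked barcodes to variants. A minimum of 5 reads applied, and three batches were averaged.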

Variant | self-cleavage
UAACAGGGGGCCACAGCAGAAGCGUUCGCGUCGCAGCCCCAGUCAGAUUCUGGUGAACCUGCGAAUUCUGCUGUAUAUCUC | 0.24
UAACAGGGGGCCACAGCAGAAGCGUUCGCAUCGCAGCCCCUGUCAGAUUCUUGUGAAUCUGCGUAUUCUGCUGUACAUCUC | 0.14
UAACAGGGGGCCACAGCAGAAGCGUUCGCGACGCAGCCCCUGUCAGAUCCUGGUGAAUCUGCGAAUUCUGCUGUAUAUCUC | 0.27
UAACAGGGGGCCACAGCAGAAGCGUUCGCGUCGCAGCCCCUGCUAGAUCCUGGUGAAUCCGCGAAUUCUGCUGUAUAUCUC | 0.21
UAACAGGGGGCCACAGCAGAAGCGUUCGCAUCGCAGCCCCUGUCAGAUUCUGGUGAAUCUGCGAAUUCAGCCGUAUAUCUC | 0.13
UAACAGGGGGCCACAGCAGAAGCGUUCGCGCCGCAGCCCCCGUCAGAUUCUGGUGAAUCUGUGUAUUCUGCUGUAUAUCUC | 0.11
UAACAGGGGGCCACAGCAGAAGCGUUCGCGCCGCGGCCCCUGUCAGAUUCUGGUGAAUCUGCGAAUUCUGCUGUGUACCUC | 1.05
UAACAGGGGGCCACAGCAGAAGCGUUCGCGUCGCAGCCACUGCCAGAUUCUGGUGGAUCUGCGAAUUCUGCUGUAUAUCUC | 0.14
UAACAGGGGGCCACAGCAGAAGCGUUCGCGUCGCAGCCCAUGUCAGUUCCUGGUGAAUCUGCGAAUUCUGCUGUAUAUCUC | 0.25
UAACAGGGGGCCACAGCAGAAGCGUUCGCGUCGCAGCCCCUGACAGAUUCAGGUGAAUCUGCGUAUUCCGCUGUAUAUCUC | 0.15
UAACAGGGGGCCACAGCAGAAGCGUUCGCGCCGCGGCCCCUGUCAGAUUCUGGUGAAUCUGCGGAUUCUGCUGUAUAUCUC | 0.99
UAACAGGGGGCCACAGCAGAAGCGUUCGCGUCGCAGCCACUGUCAGAUUCAGGUGAAUCUGCGAACUCUACAGUAUAUCUC | 0.48
UAACAGGGGGCCACAGCAGAAGCGUUCGCGUCGCAGCCCCCGUCAGGUUCUGGUGAAUCUGCGAGUUCUGCUGUAUAUCUC | 0.32
UAACAGGGGGCCACAGCAGAAGCGUUCGCGUCGCAGCCCCUGUCAGAUUCUGGUAAAUCUGCGAAUUCAGCCGUAUAUCUC | 0.23
UAACAGGGGGCCACAGCAGAAGCGUUCGCGGCGCUGCCCCUGUCAGAUUCUGGUGAAUCUGCGAAUUCUGCUGUAUAUCUC | 0.25
UAACAGGGGGCCACAGCAGAAGCGUUCGCGCCGCAGCCCCUGUCAGAUCCUGGUGAAUCUGCGGAUUCUGCUGUAAAUCUC | 0.11
UAACAGGGGGCCACAGCAGAAGCGUUCGCGACGCAGUCCCUGUCAGAUCCAGGUGAAUCUGCGGAUUCUGCUGUAUAUCUC | 0.06

Variant | self-cleavage
UAACAGGGGGCCACAGCAGAAGCGUUCGCGUCGCAGCCCCAGUCAGACUCUGGUGAAUCUGCGAAUCCUGCGGUAUAUCUC | 0.1
UAACAGGGGGCCACAGCAGAAGCGUUCGCGUCGCAGCCCCUAUCAGAUUCUGGUGAAUCUGCGGAUUCUGCUGUAUAUCUC | 0.1
UAACAGGGGGCCACAGCAGAAGCGUUCGCGUCGCAGCCCCAGUCAGAUUCUGGUGAAUCUGCGAAUUCUGCUGUAUAACUC | 0.13
UAACAGGGGGCCACAGCAGAAGCGUUCGCGUCGCAGCCCCUGCCAGAUUCUGGUGAAUCCGCGAAUUCUGCUGUAUAUCUU | 0.27
UAACAGGGGGCCACAGCAGAAGCGUUCGCGUCGCAGCCCCUAUCGGAUUCCGGUGAAUCUGCGAAUUCUGCUGUAUAUCUC | 0.15
UAACAGGGGGCCACAGCAGAAGCGUUCGCGUCGCAGCCCCUAUCAGAAUCUGGUGAAUCUGCGAAUUCUGCUGUAUAUCUC | 0.23
UAACAGGGGGCCACAGCAGAAGCGUUCGCGUCGCAGCCCCCGUCAGAUUCAGGUGAAUCUGCGGAUUCUGCUGUAUAUCUC | 0.47
UAACAGGGGGCCACAGCAGAAGCGUUCGCGACGCAGCCCCUGUCAGAUUCUGGUGAGUCUGCGAAUUCUGCUGUAUAUCUC | 0.33
UAACAGGGGGCCACAGCAGAAGCGUUCGCGUCGCAGCCCCAGUCAGAUUCUGGUGAAUCUGCGAAUUCUGCUGUAUAUCCC | 0.3
UAACAGGGGGCCACAGCAGAAGCGUUCGCGUCACAGCCCCUGUCAGGUUCCGGUGAGUCUGCGAAUUCUGCUGUAUAUCUC | 0.07
UAACAGGGGGCCACAGCAGAAGCGUUCGCGUCGCAGCCCCUGUCAGAUUCUGGUGAAUCUGCGAAUUCUGCUAUAUGUCUC | 1.41
UAACAGGGGGCCACAGCAGAAGCGUUCGCGUCGCAGCCCCUGUAAGAUUCUGGUGUAUCUGCGAAUACUGCUGUGUAUCUC | 0.12
UAACAGGGGGCCACAGCAGAAGCGUUCGCGUCGCAACCCCAGACAGAUUCUGGUGAUUCUGCGAAUUCUGCUGUAUAUCUC | 0.14
UAACAGGGGGCCACAGCAGAAGCGUUCGCGACGCGGCCCCCGUCUGAUUCUGGUGAGUCUGCGAAUUCUGCUGUAUAUCUC | 0.15
UAACAGGGGGCCACAGCAGAAGCGUUCGCGUCGCAGCCCCUGCCGGACUCUGGUGAAUCUGCGAAUUCUGCUGUAUAUCUC | 0.15
UAACAGGGGGCCACAGCAGAAGCGUUCGCGUCGCAGCCCCUAUCAGAAUCUGGUGAGUCUGCGAAUUCUGCUGUAUAUCUC | 0
UAACAGGGGGCCACAGCAGAAGCGUUCGCGUCGCAGCCCAUGUCAGAUUCUGGCGAAUCUGCGAAUUCUGCUGUAUAUCUC | 0.08
